Data: paper PMC4336329 (PLoS ONE, 2015)
Out of some 310,000 compounds screened, about 2,200 (0.71%) showed an effect of 50% or more. The effect is printed as a negative number. This is one part of the list.

biological target: human ether-à-go-go-related gene (hERG) potassium channel (human, UniProt Q12809); experiment: primary screen, population patch clamp on CHO cells stably expressing hERG
Sequence (Q12809 whole entry, looked up): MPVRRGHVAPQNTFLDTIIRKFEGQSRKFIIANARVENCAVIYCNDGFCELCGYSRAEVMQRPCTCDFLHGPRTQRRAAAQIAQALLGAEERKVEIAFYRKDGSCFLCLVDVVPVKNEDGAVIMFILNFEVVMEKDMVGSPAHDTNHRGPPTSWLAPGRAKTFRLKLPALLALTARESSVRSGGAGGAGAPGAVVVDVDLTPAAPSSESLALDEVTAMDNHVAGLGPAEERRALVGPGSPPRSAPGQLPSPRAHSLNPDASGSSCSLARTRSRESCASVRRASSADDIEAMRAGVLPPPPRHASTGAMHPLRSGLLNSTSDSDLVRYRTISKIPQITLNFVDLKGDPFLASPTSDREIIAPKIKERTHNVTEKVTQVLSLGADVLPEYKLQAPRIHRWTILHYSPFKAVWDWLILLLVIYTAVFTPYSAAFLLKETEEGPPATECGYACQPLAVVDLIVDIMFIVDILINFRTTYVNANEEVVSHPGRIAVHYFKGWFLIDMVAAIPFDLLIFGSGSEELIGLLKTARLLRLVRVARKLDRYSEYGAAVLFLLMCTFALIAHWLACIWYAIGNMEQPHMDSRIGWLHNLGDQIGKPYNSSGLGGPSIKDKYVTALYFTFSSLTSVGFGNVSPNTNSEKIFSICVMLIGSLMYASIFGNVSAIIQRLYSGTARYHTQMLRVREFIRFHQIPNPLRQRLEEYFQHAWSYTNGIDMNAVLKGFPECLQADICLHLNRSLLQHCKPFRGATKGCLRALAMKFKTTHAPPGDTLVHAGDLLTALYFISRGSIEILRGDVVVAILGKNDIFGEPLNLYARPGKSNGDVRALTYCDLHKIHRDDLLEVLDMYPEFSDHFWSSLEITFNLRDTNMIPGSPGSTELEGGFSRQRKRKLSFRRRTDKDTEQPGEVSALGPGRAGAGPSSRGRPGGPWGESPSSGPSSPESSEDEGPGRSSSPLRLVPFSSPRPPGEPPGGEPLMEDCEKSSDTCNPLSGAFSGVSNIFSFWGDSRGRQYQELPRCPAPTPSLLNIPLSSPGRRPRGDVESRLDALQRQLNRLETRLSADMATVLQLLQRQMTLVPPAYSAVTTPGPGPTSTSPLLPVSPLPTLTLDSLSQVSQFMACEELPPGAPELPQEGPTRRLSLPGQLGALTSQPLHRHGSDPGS

Row | SMILES | hERG current change (%, negative = inhibition) at 1uM
1 | CCC1Sc2ccc(S(=O)(=O)N3CCN(c4ccccc4)CC3)cc2NC1=O (centres unmarked) | 13.9%
2 | Cc1ccc(C)c(NC(=O)CSc2nc3[nH]ncc3c(=O)[nH]2)c1 | 5.1%
3 | C/C(=N\OC(=O)c1ccccc1)c1cc(-c2ccc(Cl)cc2)no1 | 3.43%
4 | Cc1cc(N2CC(C(=O)NCc3cccs3)CC2=O)ccc1C(C)C (centres unmarked) | -0.511%
5 | COc1cc2ccccc2cc1C(=O)NC1CCCCC1 | 1.8%
6 | COC(=O)CNC(=O)CCc1nnc(C2(c3ccc(Cl)cc3)CCC2)o1 | 0.917%
7 | CC(=O)[C@]1(O)Cc2c(O)c3c(c(O)c2[C@@H](O[C@H]2C[C@H](N)[C@H](O)[C@H](C)O2)C1)C(=O)c1ccccc1C3=O.Cl | 8.91%
8 | O=C(N=Nc1c(O)n(C2OC(=O)c3ccccc32)c2ccccc12)c1ccco1 (centres unmarked) | 9.45%
9 | COc1ccc(CC(=O)Nc2ccc(C(=O)NC(C)(C)C)cc2)cc1 | 4.61%
10 | CC12CC(NC(=O)N1c1cccc(C(=O)NCc3ccccc3)c1)c1ccccc1O2 (centres unmarked) | -8.94%
11 | CCOc1cc(-c2c(C)c(C)nc(N)c2C#N)ccc1O | 2.07%
12 | Cc1cccc2c(SCC(=O)NCC3CCCO3)nc(-c3ccc(F)cc3)nc12 (centres unmarked) | 1.29%
13 | CC(C)(C)NC(=O)NC(=O)Cn1ccsc1=N.Cl | 10.1%
14 | Cc1ccccc1C(=O)NC1CCN(CC(=O)Nc2nccs2)CC1 | 4.9%
15 | CCC1CCCCN1C(=O)COc1ccc(F)cc1 (centres unmarked) | 3.89%
16 | COC(=O)C1=C(CS(=O)(=O)c2ccccc2)NC(=O)NC1c1ccc(O)cc1 (centres unmarked) | 13.9%
17 | Cc1ccc2nc(/C(C#N)=C\c3ccc(Oc4ccc(C(F)(F)F)cc4[N+](=O)[O-])cc3)[nH]c2c1 | 20.8%
18 | COc1cccc(C2CC(c3cccs3)=NN2C(=S)Nc2ccccc2)c1OC (centres unmarked) | 1.02%
19 | CN(C)S(=O)(=O)c1cccc(NC(=O)Cn2cc(C(F)(F)F)cc(Cl)c2=O)c1 | 8.51%
20 | COC(=O)CNC(=O)c1ccccc1 | 17.5%
21 | CN(CC(=O)Nc1ccc(Cl)c(S(=O)(=O)N2CCOCC2)c1)C(=O)c1ccc(C#N)cc1 | 11%
22 | O=C(O)C1=NN(c2c(F)c(F)cc(F)c2F)C(=O)CC1 | 8.16%
23 | CC1CCN(C(=O)/C(=C\c2ccccc2F)NC(=O)c2ccccc2)CC1 | -18.4%
